# Measured values published in PubChem BioAssay AID1347073 (National Center for Advancing Translational Sciences (NCATS), 2019).
# In all, about 45,000 compounds went through this assay and about 200 (0.44%) were called active. Roughly 7% stayed inconclusive and do not appear here. The call rests on the fitted dose curve; in most records, active means well fitted activation curve with a large enough effect; inconclusive means small, poorly fitted or top-dose-only effect; inactive means no such curve, though single readings can be large or run the other way. The list shows a part of the results.
# Experiment: qHTS of TDP-43 Inhibitors: NCGC Sytravon Library Screen; further: nearly all actives have a fitted effect of over 55% in size; on growth rescue (activation): 0% is about no effect
# Conditions: yeast TDP-43 toxicity rescue, BacTiter-Glo growth, 24 h; series mostly up to 46.1 µM; growth rescue (activation): at the top concentration
# Summary of the method: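 TDP-43-expressing yeast, pregrown in raffinose, seeded at OD600 0.02 in galactose medium with compound for 24 hr at 30 deg C. Growth read by BacTiter-Glo luminescence, so rescue of toxicity appears as activation.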
# Potency means the concentration at half of the fitted maximal effect.
Compound,growth rescue (activation),Potency
CCCN(CC(=O)Nc1ccccc1OC)C(=O)c1nc2nc(C)ccn2n1,inactive: 12.1%,
Cc1nnc(SCC(=O)N(Cc2ccccc2)C(C)C)n1-c1ccccc1,inactive: 4.67%,
O=C(CN(C(=O)CCC(=O)Nc1nccs1)c1ccccc1F)NCc1ccc2c(c1)OCO2,inactive: 5.95%,
CN1CCC(OC(=O)c2cc3cc(Br)ccc3oc2=O)CC1,inactive: -11.6%,
CC1CCN(C(=O)N[C@@H](Cc2ccccc2)C(=O)O)CC1,inactive: -6.35%,
CCOC(=O)C1(Cc2cccc(OC)c2)CCCN(C(=O)CSC)C1 (stereo not drawn),inactive: -11.4%,
N/C(=N\OC(=O)COc1ccc(Cl)cc1)c1ccc(Cl)cc1,inactive: 3.14%,
COc1ccc(-n2c(CN3CCN(c4ccc(F)cc4)CC3)nc3ccc([N+](=O)[O-])cc3c2=O)c(OC)c1,inactive: 5.5%,
COc1ccc(-n2c(C)cc(C(=O)CN3CCCCC3)c2C)cc1,inactive: 8.79%,
N#Cc1ccccc1NC(=O)COC(=O)CCc1ccc(S(=O)(=O)N2CCCCC2)cc1,inactive: 10.4%,
CCC(C)[C@H](NC(=O)Nc1cccc(Br)c1)C(=O)OC (stereo partly drawn),inactive: 18.7%,
CCn1c(SCC(=O)NCC2CCCO2)nnc1-c1c[nH]c2ccccc12 (stereo not drawn),inactive: 11.5%,
O=C1CCC/C(=N\NC(=O)COc2ccc(Cl)cc2)C1,inactive: 11.9%,
O=C(CN1CCN(S(=O)(=O)c2ccccc2)CC1)NC(=O)NCc1ccco1,inactive: -0.105%,
CCC(=O)Oc1cccc(C(=O)Nc2cccc(NC(=O)c3ccco3)c2)c1,inactive: -6.39%,
O=C(O)C1CCN(C(=O)CSc2nc3ccccc3c(=O)n2Cc2ccccc2)CC1,inactive: 16.7%,
Cc1ccccc1-c1cnn(-c2cccc([N+](=O)[O-])c2)c1N,,active: 12.6 µM
CCCCOc1ccc(C2OC34CCCCC3C(C#N)(C#N)C2(C#N)C(=N)O4)cc1 (stereo not drawn),inactive: 26.2%,
Cc1ccsc1/C=C1\CCC(C2CCCC2)C1=O (stereo not drawn),inactive: 7.88%,
CCOc1cc2[nH]c(=O)n(CC3CCC(C(=O)NCCC(C)C)CC3)c(=O)c2cc1OCC (stereo not drawn),inactive: 8.38%,
CC(C)NC(=O)c1cc(C2CCCCN2S(=O)(=O)c2cccs2)on1 (stereo not drawn),inactive: 10.4%,
O=C(CCN1C(=O)/C(=C/c2ccc(Cl)cc2)SC1=S)Nc1cccnc1,inactive: -7.38%,
COc1cccc(/C=C/C(=O)c2ccc(NC3=NCCCS3)cc2)c1,inactive: 8.31%,
Cc1ccc(N(C(=O)CNC(=O)c2ccco2)C(C(=O)NC2CCCCC2)c2cccnc2)cc1 (stereo not drawn),inactive: -4.84%,
CCOc1cc(C2C(C#N)=C(N)OC3=C2C(=O)CC(C)(C)C3)cc([N+](=O)[O-])c1O (stereo not drawn),inactive: -5.77%,
Cc1ccc(NC(=O)c2cc([N+](=O)[O-])ccc2N2CCOCC2)cc1S(=O)(=O)N(C)C,inactive: -1.37%,
COc1cc(/C=C/c2ccc3cccc([N+](=O)[O-])c3n2)ccc1OCC#N,inactive: 10.1%,

Compound,growth rescue (activation),Potency
O=S(=O)(Nc1ccc(S(=O)(=O)N2CCCC2)cc1)c1ccc(F)cc1F,inactive: -2%,
CO/N=C/c1c(C(=O)OC)nn(-c2ccccc2)c1Cl,inactive: 26%,
CCOC(=O)NNc1ccccc1,inactive: 12.8%,
CCCc1c(C)c2cccc(C)c2[nH]c1=O,inactive: 23.9%,
CCOc1ccc(CN(C)C(C)C(=O)NCCc2ccc(F)cc2)cc1 (stereo not drawn),inactive: 1.47%,
CCN(CC(=O)NCc1ccc(F)cc1)C(=O)Cc1c(F)cccc1Cl,inactive: -3.63%,
Cc1ccc(NS(=O)(=O)c2cc([N+](=O)[O-])ccc2NNC(=S)Nc2cccc(Cl)c2)c(C)c1,inactive: 24.9%,
COc1ccc(C(=O)Nc2nc3ccccc3[nH]2)cc1,inactive: -41.5%,
COc1ccc(S(=O)(=O)N2CCOCC2)cc1NC(=O)c1ccc(-n2nc(C)cc2C)cc1,inactive: -9.1%,
COc1ccc(-c2[nH]ncc2CN2CCN(c3ccccn3)CC2)c(OC)c1,inactive: 11%,
COc1ccc(C(=O)C2CCCN(C/C=C/c3ccccc3OC)C2)c(OC)c1 (stereo not drawn),inactive: -7.58%,
Cc1ccc(N(Cc2cc3ccccc3[nH]c2=O)S(C)(=O)=O)cc1,inactive: -10.1%,
CC(C)Oc1cc(N)c(Cl)cc1Cl,inactive: 13.1%,
Cc1ccc2nc3c(c(Nc4ccc5c(c4)OCCO5)c2c1)CCC3,inactive: -13.8%,
CS(=O)(=O)N(CC(=O)N/N=C/c1cccc2c1OCCO2)c1ccccc1Br,inactive: 11%,
O=C(Nc1cccc(-c2nc3ncccc3o2)c1)c1ccc2c(c1)OCO2,inactive: -0.463%,
COc1ccc([N+](=O)[O-])cc1NC(=O)CCN1CCN(CCO)CC1,inactive: 20.7%,
COc1ccc(-c2cn(-c3ccc(OC)cc3)c3[n+]2-c2ccccc2CC3)cc1,inactive: 2.16%,
CC1(C(=O)NS(=O)(=O)c2ccccc2)CCN1C(=O)c1ccccc1 (stereo not drawn),inactive: -4.2%,
Cn1c(=O)cc(C(=O)N/N=C/c2ccc(Cl)cc2)[nH]c1=O,inactive: -10.4%,
CN1CCN(C(=O)c2cc3c(C(F)(F)F)nn(C)c3s2)CC1,inactive: 7.58%,
CN(C(=O)CSc1nnc(-c2cccs2)n1C1CC1)C1CCS(=O)(=O)C1 (stereo not drawn),inactive: 10.6%,
COC(=O)c1c(N2C(=O)CC(Sc3ncccc3C(=O)O)C2=O)sc(C)c1C (stereo not drawn),inactive: -17.2%,
OCCC1CN(Cc2cccc3nonc23)CCN1Cc1ccsc1 (stereo not drawn),inactive: 27.7%,
Cn1c(=O)c2cc(NC(=S)NCc3ccccc3F)ccc2n1Cc1ccc(F)cc1,inactive: 0.523%,
NC(=O)c1nsc(C(=O)N(c2ccccc2)C(C(=O)NC2CCCCC2)c2ccc(O)cc2)c1N (stereo not drawn),inactive: -0.0568%,
